Publication PMC4891660
Results are given in words; binding and its absence hold for the method and conditions named. For part of these data: In cells and extracts the contact can be indirect. Some results given as binding are weak or reduced against the parent protein; the word gives no strength. For part of these data: Where a sequence is shown, tags or fusion partners need not be part of it.

Sequences of proteins named here, by UniProt entry; tags and fusion partners are left off.
UniProt Q9SN12: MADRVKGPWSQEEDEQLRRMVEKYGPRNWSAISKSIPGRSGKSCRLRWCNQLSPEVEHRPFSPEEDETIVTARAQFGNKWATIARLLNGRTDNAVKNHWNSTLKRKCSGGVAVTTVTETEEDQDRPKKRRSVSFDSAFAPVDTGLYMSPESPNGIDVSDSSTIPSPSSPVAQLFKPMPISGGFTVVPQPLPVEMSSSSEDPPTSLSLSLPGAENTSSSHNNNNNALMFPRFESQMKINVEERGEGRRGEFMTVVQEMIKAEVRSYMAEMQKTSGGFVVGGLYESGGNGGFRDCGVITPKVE
UniProt Q8VZQ2: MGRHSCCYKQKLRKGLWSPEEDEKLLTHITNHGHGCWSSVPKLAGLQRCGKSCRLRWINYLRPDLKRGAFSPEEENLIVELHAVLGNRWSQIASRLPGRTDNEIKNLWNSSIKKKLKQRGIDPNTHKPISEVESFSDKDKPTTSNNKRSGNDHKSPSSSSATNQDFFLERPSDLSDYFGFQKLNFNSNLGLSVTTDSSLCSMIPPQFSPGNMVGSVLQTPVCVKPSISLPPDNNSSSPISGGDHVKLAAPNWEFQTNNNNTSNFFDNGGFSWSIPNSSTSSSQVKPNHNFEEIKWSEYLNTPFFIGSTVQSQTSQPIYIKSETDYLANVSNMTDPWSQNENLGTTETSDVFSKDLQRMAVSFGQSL
UniProt Q9FDW1: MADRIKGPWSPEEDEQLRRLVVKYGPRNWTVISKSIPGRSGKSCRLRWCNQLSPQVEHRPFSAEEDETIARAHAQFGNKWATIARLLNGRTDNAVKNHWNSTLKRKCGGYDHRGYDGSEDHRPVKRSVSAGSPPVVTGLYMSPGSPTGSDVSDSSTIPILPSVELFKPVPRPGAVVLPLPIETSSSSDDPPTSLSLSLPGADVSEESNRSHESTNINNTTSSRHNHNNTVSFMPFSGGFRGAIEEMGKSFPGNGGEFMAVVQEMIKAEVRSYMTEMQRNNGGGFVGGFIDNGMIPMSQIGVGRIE
UniProt O23160: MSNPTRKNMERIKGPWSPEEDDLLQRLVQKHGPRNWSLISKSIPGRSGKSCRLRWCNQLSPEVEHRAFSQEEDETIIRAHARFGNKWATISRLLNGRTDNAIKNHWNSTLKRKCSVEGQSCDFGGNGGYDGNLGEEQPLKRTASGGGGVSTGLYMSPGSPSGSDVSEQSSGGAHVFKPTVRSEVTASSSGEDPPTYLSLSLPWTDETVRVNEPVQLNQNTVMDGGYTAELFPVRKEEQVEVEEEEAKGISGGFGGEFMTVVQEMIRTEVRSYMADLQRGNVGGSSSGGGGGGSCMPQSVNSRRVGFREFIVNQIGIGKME

Experiments:
[1] = target: T1, PYL6 fused to the GAL4 DNA binding domain (Arabidopsis) (UniProt Q8S8E3); test: two-hybrid; yeast two-hybrid; PYLs fused to the GAL4 DNA binding domain as baits, MYBs fused to the GAL4-activating domain as preys; growth on medium lacking His, Leu and Trp, with or without 5 μM ABA; several independent clones, dilutions spotted and photographed after 5 days
T1 sequence: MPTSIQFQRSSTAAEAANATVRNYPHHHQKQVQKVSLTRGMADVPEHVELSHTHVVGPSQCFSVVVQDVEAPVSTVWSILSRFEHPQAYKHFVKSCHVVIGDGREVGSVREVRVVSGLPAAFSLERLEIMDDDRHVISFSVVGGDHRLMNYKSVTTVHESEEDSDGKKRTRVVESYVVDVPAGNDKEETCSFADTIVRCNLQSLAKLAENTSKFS

[2] = target: T2, PYL8 fused to the GAL4 DNA binding domain (Arabidopsis) (UniProt Q9FGM1); test: as above
T2 sequence: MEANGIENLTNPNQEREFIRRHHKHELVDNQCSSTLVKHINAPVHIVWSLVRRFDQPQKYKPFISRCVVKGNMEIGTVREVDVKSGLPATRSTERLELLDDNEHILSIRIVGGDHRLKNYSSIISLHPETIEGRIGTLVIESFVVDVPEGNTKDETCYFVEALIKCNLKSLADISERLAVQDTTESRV

[3] = target: T3, PYL9 fused to the GAL4 DNA binding domain (Arabidopsis) (UniProt Q84MC7); test: as above
T3 sequence: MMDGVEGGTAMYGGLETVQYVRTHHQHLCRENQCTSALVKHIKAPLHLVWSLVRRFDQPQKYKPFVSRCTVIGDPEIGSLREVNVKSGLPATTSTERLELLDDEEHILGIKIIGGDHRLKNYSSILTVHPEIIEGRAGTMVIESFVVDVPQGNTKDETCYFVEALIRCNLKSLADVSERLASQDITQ

[4] = target: PYL9 fused to the N-terminal domain of firefly luciferase (Arabidopsis) (UniProt Q84MC7); test: split reporter; firefly luciferase (LUC) complementation; PYL9-nLUC co-transformed with MYB-cLUC into Arabidopsis Col-0 wild-type protoplasts

## MYB DOMAIN PROTEIN 77 (MYB77) fused to the GAL4-activating domain (from UniProt Q9SN12 1-301)
[1]
  binding: no binding
[2]
  binding: binds
[3]
  binding: binds weakly

## MYB61 fused to the C-terminal domain of firefly luciferase (from UniProt Q8VZQ2 1-366)
[4]
  binding: no binding

## MYB44 fused to the GAL4-activating domain (from UniProt Q9FDW1 1-305)
[1]
  binding: no binding
[2]
  binding: binds
[3]
  binding: binds weakly

## MYB73 fused to the GAL4-activating domain (from UniProt O23160 1-320)
[1]
  binding: no binding
[2]
  binding: binds
